Source: paper PMC4336329 (PLoS ONE, 2015)
The campaign covered roughly 310,000 compounds. About 2,200 (0.71%) showed an effect of 50% or more. Effects have a minus sign here. The list shows a part of the results.

target: human ether-à-go-go-related gene (hERG) potassium channel (human, UniProt Q12809); assay: primary screen, population patch clamp on CHO cells stably expressing hERG
Sequence (Q12809 whole entry, looked up): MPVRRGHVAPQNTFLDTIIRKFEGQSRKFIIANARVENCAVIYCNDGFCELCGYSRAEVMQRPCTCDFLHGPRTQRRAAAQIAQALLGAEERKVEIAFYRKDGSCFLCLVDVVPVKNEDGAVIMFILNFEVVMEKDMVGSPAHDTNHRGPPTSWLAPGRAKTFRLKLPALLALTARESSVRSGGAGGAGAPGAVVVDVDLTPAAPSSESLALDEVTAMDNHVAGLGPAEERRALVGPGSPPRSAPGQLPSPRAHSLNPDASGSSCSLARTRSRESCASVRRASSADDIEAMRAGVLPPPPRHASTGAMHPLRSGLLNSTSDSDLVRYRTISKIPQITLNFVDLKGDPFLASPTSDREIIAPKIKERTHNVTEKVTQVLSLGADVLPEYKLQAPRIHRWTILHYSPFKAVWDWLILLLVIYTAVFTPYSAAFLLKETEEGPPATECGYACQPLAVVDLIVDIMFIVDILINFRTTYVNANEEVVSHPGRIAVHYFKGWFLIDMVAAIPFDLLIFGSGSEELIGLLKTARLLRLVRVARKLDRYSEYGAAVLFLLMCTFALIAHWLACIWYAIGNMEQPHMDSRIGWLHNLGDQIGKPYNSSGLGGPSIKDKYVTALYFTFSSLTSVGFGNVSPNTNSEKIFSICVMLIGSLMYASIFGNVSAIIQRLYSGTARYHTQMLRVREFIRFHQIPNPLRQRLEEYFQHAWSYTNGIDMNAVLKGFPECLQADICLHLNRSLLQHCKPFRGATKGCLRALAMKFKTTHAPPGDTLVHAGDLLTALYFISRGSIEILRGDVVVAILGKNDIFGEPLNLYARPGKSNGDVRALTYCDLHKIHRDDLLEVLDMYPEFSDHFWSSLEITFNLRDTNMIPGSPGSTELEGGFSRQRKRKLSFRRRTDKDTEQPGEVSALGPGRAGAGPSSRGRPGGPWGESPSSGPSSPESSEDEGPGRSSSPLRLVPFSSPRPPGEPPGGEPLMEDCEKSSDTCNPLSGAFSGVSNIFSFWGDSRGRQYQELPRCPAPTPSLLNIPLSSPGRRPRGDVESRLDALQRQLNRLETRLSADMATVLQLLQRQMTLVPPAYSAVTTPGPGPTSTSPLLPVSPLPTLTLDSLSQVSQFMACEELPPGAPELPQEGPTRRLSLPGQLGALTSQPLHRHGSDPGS

Compared with `CCCn1nc(C(=O)NNC(=O)CSC(C)C(=O)Nc2cc(C)on2)c2ccccc2c1=O` (stereo not drawn), `O=C(CN1C(=O)COc2ccccc21)NNC(=O)Nc1ccccc1F` is higher in “hERG current change (%, negative = inhibition) at 1uM” value: -10.5% for the first, 2.21% for the second.

Compared with `Cc1ccc2nc(SCC(=O)NCCc3ccccc3)nc(=O)n2c1`, `C=CCn1c(SCCCc2ccccc2)nc2c1c(=O)[nH]c(=O)n2C` is lower in “hERG current change (%, negative = inhibition) at 1uM” value: 18.5% for the first, -6.47% for the second.

Going from `Cc1cc(OC(C)C(=O)NCC(O)c2ccccc2)c2c(C)c(C)c(=O)oc2c1` (stereo not drawn) to `CCN(Cc1cc2cccc(C)c2[nH]c1=O)C(=O)c1ccccc1OC`, the “hERG current change (%, negative = inhibition) at 1uM” value falls from 16.7% to 0.99%.

Compared with `CC(C)CNC(=O)Nc1ccccc1F`, `COc1ccccc1NC(=O)NCCN1CCNC1=O` is lower in “hERG current change (%, negative = inhibition) at 1uM” value: 18.1% for the first, -3.66% for the second.

Going from `CN1CCN(C(=O)c2cc3c(C(F)(F)F)nn(C)c3s2)CC1` to `Cc1ccc2[nH]c(=O)c3cc(C(=O)NCCN4CCN(C)CC4)sc3c2c1`, the “hERG current change (%, negative = inhibition) at 1uM” value falls from 20.8% to 5.17%.

First: FC(F)(F)c1cnc(COc2cc(Cl)cc(Cl)c2)c(Cl)c1
Second: COc1cccc(CNCC(O)(c2ccc(Cl)cc2)c2ccc(Cl)cc2)c1
The “hERG current change (%, negative = inhibition) at 1uM” value of the first is higher: 13.5% for the first, 10.8% for the second.

Compared with `CCC1CCc2c(sc(NC(=O)CSc3nc(-c4ccco4)cc(C(F)(F)F)n3)c2C#N)C1` (stereo not drawn), `CCC(C)Sc1ccc(-c2nc3cnccn3c2NC2CCCCC2)cc1.O=C(O)C(F)(F)F` (stereo not drawn) is lower in “hERG current change (%, negative = inhibition) at 1uM” value: 13.2% for the first, 12.6% for the second.

Going from `COC(CN(C)C(=O)c1ccc2c(c1)NC(=O)c1ccccc1S2)OC` to `CCOc1ccc(C(=O)Cc2cc(OC)c(OC)cc2[N+](=O)[O-])cc1`, the “hERG current change (%, negative = inhibition) at 1uM” value falls from 10.6% to 6.72%.

First: C=CCn1c(SCC(=O)Nc2ccc3c(c2)OCO3)nnc1-c1cc(Br)ccc1O
Second: O=C(Nc1nc2c(s1)CCCC2)c1cc(-c2ccc3c(c2)OCO3)nc2ccccc12
The “hERG current change (%, negative = inhibition) at 1uM” value of the first is lower: 2.16% for the first, 6.39% for the second.

First: Cn1c(=O)c2c(ncn2CC(=O)N2CCOCC2)n(C)c1=O
Second: CC(C)(CNC(=O)CC1C(=O)NCCN1Cc1cccc(F)c1F)N1CCOCC1 (stereo not drawn)
The “hERG current change (%, negative = inhibition) at 1uM” value of the first is lower: -5.21% for the first, 35.3% for the second.

First: COc1c(C)cc(C(=O)C2CCCN(C(=O)c3csc(C)n3)C2)cc1C (stereo not drawn)
Second: NC(=O)C1CCCN(C(=O)c2ccc3nc(Cc4cccc(Cl)c4)oc3c2)C1 (stereo not drawn)
The “hERG current change (%, negative = inhibition) at 1uM” value of the first is lower: 2.63% for the first, 17.5% for the second.

Going from `Cc1ccc(NC(C)C(=O)N/N=C/c2ccc([N+](=O)[O-])s2)cc1` (stereo not drawn) to `CC(C)OC(=O)CSc1nnc(-c2ccc([N+](=O)[O-])cc2)o1`, the “hERG current change (%, negative = inhibition) at 1uM” value falls from 12% to 10.7%.

Compared with `CN(CC(=O)Nc1c(Cl)cccc1Cl)C(=O)CCc1nc2sc3c(c2c(=O)[nH]1)CCCC3`, `CC(C)c1nc2sc3c(=O)[nH]cnc3c2c2c1CCCC2` is higher in “hERG current change (%, negative = inhibition) at 1uM” value: 12.9% for the first, 14.1% for the second.

First: CCCCCC(=O)Nc1cccc(C2=NOC3(C2)C[C@@H](C(N)=O)N(C(=O)c2ccc(OC)cc2)C3)c1 (stereo partly drawn)
Second: CCc1ccc(NC(=O)Cn2nnc(C(=O)NCc3ccc(OC)cc3)c2N)cc1
The “hERG current change (%, negative = inhibition) at 1uM” value of the first is lower: 9.3% for the first, 9.72% for the second.

Compared with `Cc1cc2c(NC(=O)Nc3ccc(C(C)(C)C)cc3)cccc2nn1`, `CCOC(=O)c1ccc(NC(=O)NCc2ccncc2)cc1` is lower in “hERG current change (%, negative = inhibition) at 1uM” value: 12.2% for the first, 2.62% for the second.

Going from `C=CCn1c(-c2cccc(OC)c2OC)n[nH]c1=S` to `CSc1ccc(/C=N/n2c(COc3ccccc3)n[nH]c2=S)cc1`, the “hERG current change (%, negative = inhibition) at 1uM” value rises from 6.77% to 8.39%.

First: COc1cccc(NC(=S)N(CCCN2CCN(C)CC2)Cc2ccco2)c1
Second: CN1CCN(C(=S)c2ccc(Br)cc2)CC1
The “hERG current change (%, negative = inhibition) at 1uM” value of the first is lower: -7.46% for the first, -4.31% for the second.

First: Cc1ccc(C(=O)N/C(=C/c2cccnc2)C(=O)N2CCCCCC2)cc1
Second: Cc1ccc(S(=O)(=O)N(CC(=O)NCc2cccnc2)C2CCCCC2)cc1
The “hERG current change (%, negative = inhibition) at 1uM” value of the first is higher: -5.61% for the first, -30.3% for the second.

Going from `COc1ccc(Nc2nc(N)nc(CN(C)C3CCCCC3)n2)cc1` to `N/C(=N\OC(=O)CC1CCCCC1)c1ccc(Br)cc1`, the “hERG current change (%, negative = inhibition) at 1uM” value rises from -17.9% to 8.39%.

First: Cc1cc(F)ccc1S(=O)(=O)Nc1ccccc1C(=O)Nc1ccc2[nH]c(=O)[nH]c2c1
Second: CCOC(=O)c1ccc(NS(=O)(=O)c2ccc3c(c2)oc(=O)n3C)cc1
The “hERG current change (%, negative = inhibition) at 1uM” value of the first is higher: 14.7% for the first, 7.64% for the second.

First: CN(C)S(=O)(=O)c1ccc(Cl)c(NC(=O)COC(=O)c2ccc(O)cc2)c1
Second: COc1ccc(C(=O)Nc2ccccc2C(=O)NC(Cc2ccc(O)cc2)C(=O)NNC(=O)c2ccccc2Cl)cc1 (stereo not drawn)
The “hERG current change (%, negative = inhibition) at 1uM” value of the first is lower: 9.88% for the first, 14.8% for the second.

First: O=C(CSc1nc2c(sc3ccccc32)c(=O)n1CCCN1CCOCC1)NC1CCCC1
Second: O=C(NCc1ccccc1Cl)C1CCC(=O)N(CCCN2CCCC2=O)C1 (stereo not drawn)
The “hERG current change (%, negative = inhibition) at 1uM” value of the first is lower: -26.8% for the first, 11% for the second.

Compared with `Cc1nc(C)c(C(=O)OCC(=O)Nc2cccc(C)c2C)s1`, `CCOC(=O)Cc1nnc(NC(=O)COc2ccc(F)cc2)s1` is lower in “hERG current change (%, negative = inhibition) at 1uM” value: 10.5% for the first, 6.68% for the second.

Going from `Cc1nc(-c2ccc(Cl)cc2)sc1C1(C)CC(c2ccccc2)=NO1` (stereo not drawn) to `CCC1(C)Cc2ccccc2-c2nc(-c3ccccc3)oc(=O)c21` (stereo not drawn), the “hERG current change (%, negative = inhibition) at 1uM” value rises from 15% to 17.5%.

Going from `Cc1cccc(C)c1OCc1cc(C(=O)N(Cc2nccn2C)C(C)C)no1` to `CCn1ccnc1CNCc1ccc(OCC(O)CN(C)Cc2ccccc2)cc1` (stereo not drawn), the “hERG current change (%, negative = inhibition) at 1uM” value rises from -11.8% to -2.51%.

First: N#CCn1cnc2c(oc3ccccc32)c1=O
Second: CCn1c(=O)c2ccccc2n2c(SCC(=O)N3CCCc4ccccc43)nnc12
The “hERG current change (%, negative = inhibition) at 1uM” value of the first is higher: 14.7% for the first, 9.6% for the second.

Compared with `COc1ccc(/C(N)=C/C(=O)C(C)(C)C)cc1`, `CCN(CC)C(=O)COc1ccc(/C(C)=N/NC(=O)c2ccccc2O)cc1` is higher in “hERG current change (%, negative = inhibition) at 1uM” value: 1.31% for the first, 5.27% for the second.

Going from `O=C(NCCNC(=O)c1ccccn1)c1cccc(F)c1` to `CC(C1CC1)N(Cc1ccccc1)C(=O)NC(=O)c1cccc(F)c1` (stereo not drawn), the “hERG current change (%, negative = inhibition) at 1uM” value falls from 25% to -2.31%.

Going from `COc1cc(OC)cc(C(=O)NC(=S)Nc2nnn(C)n2)c1` to `COc1ccc(C2NC(=O)CCC2[N+](=O)[O-])c(OC)c1` (stereo not drawn), the “hERG current change (%, negative = inhibition) at 1uM” value falls from 13% to 8.33%.

Going from `COC(=O)c1sccc1NC(=S)N1CCN(c2cc(C)ccc2C)CC1` to `Cc1ccc(C)c(NC(=S)NC(NC(=O)N(C)C)C(Cl)(Cl)Cl)c1` (stereo not drawn), the “hERG current change (%, negative = inhibition) at 1uM” value falls from 14.6% to 2.87%.

Compared with `Cc1ccc(OCCCCc2c(C)n[nH]c2C)cc1`, `Cc1nc(C)c(C(=O)NCc2ccc(Cl)cc2)o1` is lower in “hERG current change (%, negative = inhibition) at 1uM” value: 8.88% for the first, -3.81% for the second.

First: O=C(Nc1ccc(N2CCOCC2)cc1)c1cccc(-n2cnnc2)c1
Second: O=C(Nc1ccc(F)cc1)c1ccc(NC(=O)C2CCCO2)cc1 (stereo not drawn)
The “hERG current change (%, negative = inhibition) at 1uM” value of the first is higher: 14.3% for the first, 12% for the second.

Going from `COCCN(CC(=O)Oc1ccccc1P(=O)(OC)OC)Cc1ccccc1` to `COc1ccccc1C(=O)NC(=Nc1nc2ccccc2o1)NC(=O)c1ccccc1OC`, the “hERG current change (%, negative = inhibition) at 1uM” value rises from 7.35% to 12%.

Going from `COc1ccccc1CNC(=O)C1=C(C)C(=O)OC12CCC(C)CC2` (stereo not drawn) to `COc1cccc(O)c1CN1CCCC(C(=O)c2ccccc2SC)C1` (stereo not drawn), the “hERG current change (%, negative = inhibition) at 1uM” value falls from 7.11% to -0.41%.

First: Cc1cccc(N2C(=O)N3[C@@H]4c5ccccc5OC[C@@H]4[C@@H](c4ccccc4)[C@@]3(C)C2=O)c1
Second: O=C1C2C3C=CC(c4ccccc4)(C2C(=O)N1c1cccc(Cl)c1)C1C(=O)N(c2cccc(Cl)c2)C(=O)C31 (stereo not drawn)
The “hERG current change (%, negative = inhibition) at 1uM” value of the first is lower: 4.76% for the first, 14.4% for the second.

Going from `O=C(O)c1cn(Cc2ccccc2Cl)c2ccc(S(=O)(=O)N3CCOCC3)cc2c1=O` to `CCOC(=O)CCC(=O)Nc1ccc(S(=O)(=O)N2CCCCC2)cc1`, the “hERG current change (%, negative = inhibition) at 1uM” value rises from -0.124% to 1.25%.

Going from `C#Cc1ccc([C@H]2C=C(C(=O)NCc3nc4ccccc4[nH]3)O[C@@H](OCC)[C@@H]2CCCO)cc1` to `COc1cc(/C=N/NC(=O)/C(=C/c2ccccc2)CCO)ccc1O`, the “hERG current change (%, negative = inhibition) at 1uM” value falls from -1.27% to -7.37%.

Going from `CCSc1ccc(C(=O)Nc2cccc(C)n2)cc1[N+](=O)[O-]` to `O=C(O)c1ccc(N2CCN(C(c3ccccc3)c3ccccc3)CC2)c([N+](=O)[O-])c1`, the “hERG current change (%, negative = inhibition) at 1uM” value rises from -3.22% to 13%.

First: O=C(C1=C(O)C(=O)N(c2ncccn2)C1c1cccs1)c1ccco1 (stereo not drawn)
Second: Cc1nc(-c2ccccn2)nc(N(C)c2ccccc2)c1Cl
The “hERG current change (%, negative = inhibition) at 1uM” value of the first is higher: 18.5% for the first, 7.47% for the second.

Going from `CCC(=NCc1ccccc1)c1c(C(F)(F)F)[nH]n(-c2nc3ccccc3s2)c1=O` to `Cc1nn(-c2ccccc2)c(C)c1/C=N/NC(=O)c1cc(-c2ccc(Br)s2)[nH]n1`, the “hERG current change (%, negative = inhibition) at 1uM” value falls from 7.12% to -3.09%.

Going from `CCCCCCCCCOC(=O)C[n+]1csc(CCO)c1C.[Cl-]` to `NC(=O)c1ccsc1NC(=O)CCS(=O)(=O)c1ccccc1`, the “hERG current change (%, negative = inhibition) at 1uM” value rises from 3.14% to 7.68%.

Going from `Cc1cccc(C(=O)NCCC(=O)N2CCc3ccccc3C2)c1` to `Cc1ccc2occ(CN3CC4CC(C3)c3cccc(=O)n3C4)c(=O)c2c1` (stereo not drawn), the “hERG current change (%, negative = inhibition) at 1uM” value falls from 9.14% to -36.1%.

Compared with `C=CCSc1nnc(NC(=O)C2=COCCO2)s1`, `NNC(=O)c1cncn1-c1ccc(F)cc1` is higher in “hERG current change (%, negative = inhibition) at 1uM” value: 10.5% for the first, 12.3% for the second.

With `Cc1sc(-n2c(C)ccc2C)c(C#N)c1C` the “hERG current change (%, negative = inhibition) at 1uM” value was 0.797%.
